Source: the supplement of paper PMC6531468
The other results are listed elsewhere or left out. These are enrichments in a pooled selection; single values are uncertain. Each score is taken over the longer molecules that contain the sequence shown.

What was measured:
Assay in all cases: 6-mer SELEX enrichment z-score vs GST control; IMP3 is the RNA-binding protein IGF2BP3; higher = more enriched by binding
IMP3 KH1-4 = conditions: construct: KH1-4 (164-579); SELEX round: R4
Procedure: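 SELEX-seq with GST-tagged IMP3 KH1-4 (Pro164-Lys579) and an N40 RNA pool, round 4. 6-mer z-score of sequence-tag enrichment normalised to the corresponding GST SELEX round; RNA k-mers written as DNA (T for U).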

IMP3 RRM1-2 = conditions: construct: RRM1-2 (1-163); SELEX round: R2
IMP3 RRM1-2, sequence (chain, as listed by the source): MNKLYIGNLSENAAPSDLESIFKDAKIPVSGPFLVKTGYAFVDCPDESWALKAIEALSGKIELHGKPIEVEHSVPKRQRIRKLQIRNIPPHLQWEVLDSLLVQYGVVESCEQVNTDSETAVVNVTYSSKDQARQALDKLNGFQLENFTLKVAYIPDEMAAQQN
Procedure: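 SELEX-seq with GST-tagged IMP3 RRM1-2 (Met1-Asn163) and an N40 RNA pool, round 2. 6-mer enrichment z-score normalised to GST SELEX. RNA written as DNA (T = U).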

IMP3 KH1-2 = conditions: construct: KH1-2 (164-376); SELEX round: R4
IMP3 KH1-2, sequence (chain, as listed by the source): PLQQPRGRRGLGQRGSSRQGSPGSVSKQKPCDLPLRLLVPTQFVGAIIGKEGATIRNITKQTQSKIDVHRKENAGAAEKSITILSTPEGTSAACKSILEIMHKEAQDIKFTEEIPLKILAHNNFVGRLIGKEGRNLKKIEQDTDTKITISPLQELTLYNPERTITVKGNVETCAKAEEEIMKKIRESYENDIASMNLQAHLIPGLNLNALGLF
Procedure: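 SELEX-seq with GST-tagged IMP3 KH1-2 (Pro164-Phe376) and an N40 RNA pool, round 4 (stringent 300/600 mM KCl washes). 6-mer z-score of sequence-tag enrichment normalised to the corresponding GST SELEX round; RNA k-mers written as DNA (T for U).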

IMP3 KH3-4 = conditions: construct: KH3-4 (377-579); SELEX round: R4
IMP3 KH3-4, sequence (chain, as listed by the source): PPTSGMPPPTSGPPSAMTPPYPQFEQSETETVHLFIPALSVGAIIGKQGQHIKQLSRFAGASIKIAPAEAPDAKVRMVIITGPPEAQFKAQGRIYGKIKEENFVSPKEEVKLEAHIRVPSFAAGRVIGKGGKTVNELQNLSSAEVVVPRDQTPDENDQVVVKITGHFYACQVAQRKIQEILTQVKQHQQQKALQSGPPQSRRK
Procedure: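 SELEX-seq with GST-tagged IMP3 KH3-4 (Pro377-Lys579) and an N40 RNA pool, round 4. 6-mer z-score of sequence-tag enrichment normalised to the corresponding GST SELEX round; RNA k-mers written as DNA (T for U).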

IMP3 KH1-4, sequence (chain, as listed by the source): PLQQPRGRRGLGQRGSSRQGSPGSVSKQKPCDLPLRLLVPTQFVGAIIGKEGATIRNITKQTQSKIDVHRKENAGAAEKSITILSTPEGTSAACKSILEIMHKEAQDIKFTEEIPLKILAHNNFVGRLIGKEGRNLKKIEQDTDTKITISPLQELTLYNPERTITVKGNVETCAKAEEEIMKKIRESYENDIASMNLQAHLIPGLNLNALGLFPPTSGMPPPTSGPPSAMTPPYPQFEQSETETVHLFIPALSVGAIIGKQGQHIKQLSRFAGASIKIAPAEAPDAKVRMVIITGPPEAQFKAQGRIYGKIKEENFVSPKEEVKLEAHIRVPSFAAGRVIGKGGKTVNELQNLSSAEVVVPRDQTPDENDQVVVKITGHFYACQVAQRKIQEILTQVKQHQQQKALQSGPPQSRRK

Row | Sequence | 6-mer SELEX enrichment z-score (IMP3 KH1-4) | 6-mer SELEX enrichment z-score (IMP3 RRM1-2) | 6-mer SELEX enrichment z-score (IMP3 KH1-2) | 6-mer SELEX enrichment z-score (IMP3 KH3-4)
1 | TCGTGG | -0.328 | 0.24 | -0.259 | -0.141
2 | GTATGG | 0.42 | 0.233 | 0.334 | 0.528
3 | CTGCCG | -0.222 | -0.315 | 0.027 | -0.554
4 | CTTGAG | -1.49 | -0.048 | -1.35 | -1.22
5 | CCAACA | -1.02 | 1.76 | -0.568 | -1.66
6 | TGCTCC | 0.15 | 0.02 | 0.189 | -0.164
7 | ACGAAA | -0.827 | -2.19 | -0.728 | -0.201
8 | TTAGAG | -0.18 | -0.081 | -0.22 | 0.147
9 | GGCATC | 1.51 | 0.963 | 0.918 | 0.592
10 | GATTAT | 1.09 | -0.066 | 0.742 | 1.43
11 | GTACCA | -0.929 | -0.146 | -1.01 | -1.27
12 | ATGCGG | 0.508 | -0.026 | 0.304 | 0.612
13 | AGACTG | -0.108 | -0.754 | -0.161 | -0.17
14 | GACTTA | -0.014 | -0.47 | -0.068 | 0.142
15 | CCGTGC | -0.783 | -0.15 | -0.727 | -1.04
16 | CATCAT | 2.04 | 2.65 | 1.76 | 1.27
17 | TTTGCC | -0.153 | -0.062 | -0.193 | -0.298
18 | ATGTCA | 0.301 | 0.271 | -0.08 | 0.218
19 | TCCGGT | 0.002 | -0.012 | 0.011 | -0.029
20 | ATCAAC | 0.639 | 2.1 | 0.582 | 0.197
21 | GCAGCA | 1.42 | 0.815 | 1.13 | 0.706
22 | CTTGTT | -0.061 | 0.344 | -0.034 | 0.047

Row | Sequence | 6-mer SELEX enrichment z-score (IMP3 KH1-4) | 6-mer SELEX enrichment z-score (IMP3 RRM1-2) | 6-mer SELEX enrichment z-score (IMP3 KH1-2) | 6-mer SELEX enrichment z-score (IMP3 KH3-4)
23 | TTTGTT | 0.532 | 0.485 | 0.441 | 0.662
24 | TTTCGG | -0.021 | 0.336 | -0.046 | 0.186
25 | CGAAAT | -0.63 | -1.27 | -0.548 | -0.296
26 | AAGCGT | -3.68 | -0.527 | -3.44 | -3.22
27 | ACCTGC | -1.47 | -0.588 | -1.32 | -1.76
28 | ATTCGG | 0.471 | 0.234 | 0.215 | 0.55
29 | ACAATG | 1.15 | 0.11 | 0.757 | 1.24
30 | CGACTT | -0.604 | -0.218 | -0.581 | -0.572
31 | TTCCGT | 0.532 | 0.171 | 0.677 | 0.263
32 | TTAGCT | 0.144 | 0.297 | 0.199 | 0.331
33 | GGTACT | -0.719 | 0.269 | -0.604 | -0.537
34 | CTTCAT | 1.1 | 1.12 | 1.3 | 0.754
35 | CCGCTA | 0.168 | -0.177 | 0.439 | -0.027
36 | CCATTT | 0.844 | 0.394 | 0.764 | 0.566
37 | TTCGAG | -1.45 | 0.115 | -1.22 | -1.07
38 | CCCATA | -0.073 | -0.213 | 0.011 | -0.579
39 | TCTTTC | 0.749 | 0.59 | 0.68 | 0.513
40 | CCTATC | -0.33 | 0.17 | -0.314 | -0.517
41 | TCAAGT | -0.059 | 0.549 | -0.161 | -0.006
42 | GTAGTC | -0.431 | 0.279 | -0.366 | -0.317
43 | AGTCCA | 0.623 | 0.023 | 0.326 | 0.115
44 | ATTGTC | 0.362 | 0.233 | 0.201 | 0.341

Row | Sequence | 6-mer SELEX enrichment z-score (IMP3 KH1-4) | 6-mer SELEX enrichment z-score (IMP3 RRM1-2) | 6-mer SELEX enrichment z-score (IMP3 KH1-2) | 6-mer SELEX enrichment z-score (IMP3 KH3-4)
45 | ACTTCA | 0.73 | 1.3 | 1.04 | 0.363
46 | CGATTC | -0.084 | -0.08 | -0.115 | -0.303
47 | CTTCGA | -1.08 | -0.017 | -0.923 | -0.897
48 | GCATGG | 0.425 | 0.537 | 0.328 | 0.253
49 | TTTGCA | 0.879 | 0.245 | 0.641 | 0.641
50 | TTTTTT | 0.901 | 0.678 | 0.979 | 1.47
51 | CCTGCA | -0.248 | 0.009 | -0.197 | -0.681
52 | TTTTAA | 1.18 | -0.057 | 1.15 | 2.1
53 | CGCCCA | -1.19 | -0.411 | -1 | -1.62
54 | TTGAAT | 0.669 | -0.345 | 0.363 | 1.13
55 | CTAACA | 0.605 | 0.729 | 0.831 | 0.473
56 | ACATTC | 1.75 | 2.18 | 1.85 | 1.08
57 | TTTGGG | -0.174 | 0.459 | -0.015 | 0.169
58 | TCGAAT | -0.476 | -0.308 | -0.506 | -0.308
59 | CAGACG | -0.756 | -0.262 | -0.631 | -0.857
60 | CATTGG | 0.045 | 0.71 | 0.036 | 0.046
61 | TCTCAT | 0.497 | 0.894 | 0.615 | 0.359
62 | TTAGAC | 0.253 | -0.226 | 0.168 | 0.382
63 | AAAAAC | -2.52 | -2.88 | -1.79 | -1.08
64 | TTGCGA | -0.745 | -0.122 | -0.671 | -0.512
65 | CATCTT | 0.511 | 0.666 | 0.275 | 0.051
66 | ATAGCT | 0.313 | 0.12 | 0.304 | 0.416
